Test results reported in patent publication US10239957B2, “Peptide containing conjugates for dual molecular delivery of oligonucleotides” (Merck Sharp & Dohme Corp., priority 2013, dated 2019).

Test system: CTNNB1
Test: In vitro DMD assay: mRNA silencing enhancement by peptide conjugates after siRNA-IV treatment
Format: cell-based
Conditions: primary mouse hepatocytes, siRNA-IV 125 nM baseline
Method: Cryopreserved primary Mouse hepatocytes (Bioreclamation, LLC) were placed into Collagen Type I coated 96-well plates at 25,000 cells per well in serum-containing InVitroGRO CP media (Bioreclamation, LLC) and allowed 5 hours to attach. Media was replaced with InVitroGRO HI media and cells were treated with siRNA-IV at 125 nM [siRNA] for 1 hour. Media was replaced with InVitroGRO HI media and cells were treated for approximately 16 hours with experimental Peptide conjugates at various concentrations to establish a dose-response curve. Peptide conjugates were washed out after 16 hours with InVitroGRO HI media and cells allowed to incubate for an additional 24 hours. Cells were then lysed and mRNA expression of the siRNA target was measured by RT-qPCR (Applied Biosystems Taqman reagents). mRNA silencing activity of each Peptide conjugate was expressed as an enhancement above the baseline activity of 125 nM siRNA-IV alone with respect to the untreated cells and all siRNA target Ct values were normalized to PPIB mRNA for each well (dddCt) and summarized.
The structure of TGN-S-S-peptide is shown below and the activity data is listed in Table 5 (siRNA-IV concentration was kept at […]).

TGN-S-S-Seq-ID-45 (L) (CGGFEAIEGFIENGWEGMIDGWYGYGRKKRRQRR; TGN disulfide conjugate; L-amino acids; listed as Homo sapiens)
In vitro dddCt (vs. baseline SCE dose) (Targeted peptide dose 8 nM): −0.14 | In vitro dddCt (vs. baseline SCE dose) (Targeted peptide dose 40 nM): 0.04 | In vitro dddCt (vs. baseline SCE dose) (Targeted peptide dose 200 nM): −0.08 | In vitro dddCt (vs. baseline SCE dose) (Targeted peptide dose 1000 nM): −0.01 | In vitro dddCt (vs. baseline SCE dose) (Targeted peptide dose 5000 nM): −0.26

TGN-S-S-Seq-ID-53 (L) (CIFGAIAGFIKNIWEGLIDGWYGKLALKLALKALKAALKLA; TGN disulfide conjugate; L-amino acids; listed as Homo sapiens)
In vitro dddCt (vs. baseline SCE dose) (Targeted peptide dose 8 nM): −0.11 | In vitro dddCt (vs. baseline SCE dose) (Targeted peptide dose 40 nM): −0.08 | In vitro dddCt (vs. baseline SCE dose) (Targeted peptide dose 200 nM): −0.11 | In vitro dddCt (vs. baseline SCE dose) (Targeted peptide dose 1000 nM): −0.02 | In vitro dddCt (vs. baseline SCE dose) (Targeted peptide dose 5000 nM): 0.01
